Each structure is given as a SMILES string. Out of some 16,000 compounds screened, about 120 (0.75%) were called active. Inconclusive results (about 4%) are left out. Calls come from the whole dose curve; as a rule, active = well fitted inhibition curve with a large enough effect; inconclusive = small, poorly fitted or top-dose-only effect; inactive = no such curve, though single readings can be large or run the other way. Some of the results follow.

Chain of UniProt O95398 (O95398 whole entry, looked up): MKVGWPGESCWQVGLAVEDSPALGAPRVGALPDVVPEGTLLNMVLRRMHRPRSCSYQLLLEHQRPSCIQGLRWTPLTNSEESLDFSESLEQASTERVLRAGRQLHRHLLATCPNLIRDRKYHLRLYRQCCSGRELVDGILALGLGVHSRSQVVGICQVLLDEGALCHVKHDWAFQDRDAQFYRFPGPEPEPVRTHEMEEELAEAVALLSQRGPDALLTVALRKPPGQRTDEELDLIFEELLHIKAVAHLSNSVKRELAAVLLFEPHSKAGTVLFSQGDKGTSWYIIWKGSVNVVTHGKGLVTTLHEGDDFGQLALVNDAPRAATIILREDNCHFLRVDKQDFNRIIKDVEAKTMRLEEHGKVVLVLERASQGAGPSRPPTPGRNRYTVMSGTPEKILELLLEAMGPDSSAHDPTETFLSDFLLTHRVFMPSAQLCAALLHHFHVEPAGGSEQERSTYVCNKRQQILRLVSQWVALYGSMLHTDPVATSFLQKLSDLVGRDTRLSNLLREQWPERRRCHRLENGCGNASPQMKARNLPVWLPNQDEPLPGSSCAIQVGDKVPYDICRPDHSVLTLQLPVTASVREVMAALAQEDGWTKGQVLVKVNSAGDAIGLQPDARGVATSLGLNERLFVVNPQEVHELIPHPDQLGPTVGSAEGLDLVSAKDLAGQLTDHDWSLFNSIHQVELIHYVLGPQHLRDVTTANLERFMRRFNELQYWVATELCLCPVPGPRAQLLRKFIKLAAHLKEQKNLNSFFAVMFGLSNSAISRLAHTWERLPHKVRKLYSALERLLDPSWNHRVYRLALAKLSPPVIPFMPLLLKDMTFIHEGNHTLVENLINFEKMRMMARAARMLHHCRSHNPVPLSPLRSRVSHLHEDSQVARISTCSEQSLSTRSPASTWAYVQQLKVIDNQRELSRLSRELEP

This assay has as its target Rap guanine nucleotide exchange factor 3 (Homo sapiens) (UniProt O95398). As to the kind of experiment: Validation qHTS for antagonist of cAMP-regulated guanine nucleotide exchange factor 3 (EPAC1).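 Note: plate controls were DMSO for no effect and ATA control for full effect; nearly all actives have a fitted effect of over 75% in size.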 The settings on record: EPAC1 Rap1B-BODIPY-GDP exchange, fluorescence; series mostly up to 150 µM; activity change, negative = inhibition: at the top concentration. The procedure, abridged:
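Nucleotide exchange followed as fluorescence loss when BODIPY-GDP leaves Rap1B (480 nm excitation, 540 nm emission), read at 5 min intervals over 30 min. Reaction: 100 nM EPAC1, 250 nM RAP1B-BODIPY-GDP, 50 uM GDP; ATA and DMSO define normalization.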
(Quantitative high-throughput screening tests each substance at several concentrations.)
On to `COc1cccc(CNC(=O)c2c(OC)cc(=O)n3c2CCN(C(=O)c2cc(C)ccc2C)CC3)c1`, for which the “activity change, negative = inhibition” value is inactive: 13.2%.
In the case of `COc1cccc(Cn2c(=O)c(-c3cc(F)cc(F)c3)nc3cnc(N4CCNCC4)nc32)c1`, the “activity change, negative = inhibition” value was inactive: -14.8%.
With `Cc1ccccc1-c1cncnc1N1CCNCC1`, the “activity change, negative = inhibition” value was inactive: 23.1%.
As for `Cc1ccc(C(=O)Cn2c3c(sc2=N)CCCC3)cc1`, the “activity change, negative = inhibition” value was inactive: -11%.
As for `CC(C)(C)NC(=O)[C@H]1CC[C@H]2[C@@H]3CC[C@H]4NC(=O)C=C[C@]4(C)[C@H]3CC[C@]12C`, the “activity change, negative = inhibition” value is inactive: 15% [at 75.8 µM].
In the case of `N[C@]1(C(=O)O)CCc2cc(P(=O)(O)O)ccc21`, the “activity change, negative = inhibition” value is inactive: 8.6%.
The figure for `O=Cc1cccc(C=O)c1` is inactive: 6.44%; for `CC(C)c1c(C(=O)NCc2ccncc2)cnn1-c1nccc(-c2cccs2)n1` it is inactive: -15.7%; for `C=CC[N+]1([C@H]2C[C@H]3[C@@H]4CC[C@H]5C[C@H](O)[C@@H](N6CCOCC6)C[C@]5(C)[C@H]4CC[C@]3(C)[C@H]2OC(C)=O)CCCC1` it is inactive: 9.47%.
The figure for `C=CC1=C(C)/C(=C/c2[nH]c(Cc3[nH]c(/C=C4\NC(=O)C(C)=C4C=C)c(C)c3CCC(=O)O)c(CCC(=O)O)c2C)NC1=O` is inactive: -0.0385%; for `O=C(NCCc1nnc2n1CCN(Cc1ccc(F)cc1)CC2)c1ccco1` it is inactive: 12.8%.
The value for `COc1ccc(CN2CCC3(CCC(CNC(=O)c4ccco4)O3)CC2)c(OC)c1C` (centres undefined) was inactive: -4.52%.
Regarding `COc1cccc(-c2cncnc2NCCc2c[nH]c3ccc(OC)cc23)c1`, the “activity change, negative = inhibition” value is inactive: 11.3%.
With `CCC[C@@H]1C[C@@H](C(=O)N[C@@H]([C@H]2O[C@H](SC)[C@H](O)[C@@H](O)[C@H]2O)[C@@H](C)O)N(C)C1`, the “activity change, negative = inhibition” value was inactive: 404%.
The figure for `COc1ccc(C(=O)N2CCC3(CCCN(c4ccccn4)C3)CC2)cc1` is inactive: 4.39%.
The figure for `COc1ccc(CN2CCOc3ccc(CN4CCC(O)(c5cccnc5)CC4)cc3C2)c(C)c1C` is inactive: 3.11%; for `COc1ccccc1CCNc1ncnc2sc(C(=O)N3CCCCC3)c(C)c12` it is inactive: 4.53%.
The value for `C=C1C(N)CC2CC1C2(C)C` (centres undefined) was inactive: 17%.
In the case of `CCCCCCCC(=O)O[C@H](CC(=O)O)C[N+](C)(C)C`, the “activity change, negative = inhibition” value was inactive: -14.8%.
The value for `CN1CCCN=C1/C=C/c1cccs1` was inactive: 22.2%.
The figure for `CC(=O)N1CCN(c2nc3cc(C)ccc3cc2CN(C(=O)c2cccc3ccccc23)C2CC2)CC1` is inactive: 5.19%; for `C[C@@H](CSc1ccc(Br)cc1)CN1CC[C@H](NC(=O)OCc2ccccc2)CCC1=O` it is inactive: 5.37%; for `COC(=O)c1cc(CNC(=O)c2cccc3ccccc23)cc(NC(=O)c2ccccc2OC)c1` it is inactive: -11%.
In the case of `CO[C@H]1C[C@@H]2CC[C@@H](C)[C@@](O)(O2)C(=O)C(=O)N2CCCC[C@H]2C(=O)O[C@H]([C@H](C)C[C@@H]2CC[C@@H](OC(=O)C(C)(CO)CO)[C@H](OC)C2)CC(=O)[C@H](C)/C=C(\C)[C@@H](O)[C@@H](OC)C(=O)[C@H](C)C[C@H](C)/C=C/C=C/C=C/1C`, the “activity change, negative = inhibition” value was inactive: 12.6%.
The value for `O=C(C[n+]1cccc2cccc(O)c21)c1ccc(Br)cc1` was inactive: 23.7%; that for `O=C(O)CCCCCCCCc1cn(CC2CCCCC2)nn1` was inactive: -6.5%; that for `C[C@]12CCC(=O)C=C1CCC1C2C(O)C[C@]2(C)C1CC[C@]2(O)C(=O)COC(=O)CCC(=O)O` (some centres undefined) was inactive: 2.22%.
The value for `OC[C@H]1NC[C@@H](O)[C@@H](O)[C@H]1O` was inactive: 13.4%; that for `O=C1CCN(CCc2ccccc2)CCN1[C@H](CSc1ccccc1)Cc1ccccc1` was inactive: -28.5%; that for `Nc1nc2c(nc(Br)n2C2OC(CO)C(O)C2O)c(=O)[nH]1` (centres undefined) was inactive: 1.08%.
The figure for `O=C(Oc1ccccc1)N1CCC2(CC1)CCN(c1ccccc1)CC2` is inactive: -11.9%; for `COCC(=O)N1CCC2(CCCN(Cc3nccs3)C2)CC1` it is inactive: 0.165%; for `Cc1ccc2nc(SCC(=O)NCC3Cc4cc(-c5ncccc5C)ccc4O3)[nH]c2c1` (centres undefined) it is inactive: 1.43%.
Consider `CC/C=C\C/C=C\C/C=C\C/C=C\C/C=C\C/C=C\CCC(=O)O`, for which the activity change, negative = inhibition result was “inactive”.
The value for `CSCCC(N)C(=O)NC(CC(C)C)C(=O)NC(Cc1ccccc1)C(=O)O` (centres undefined) was inactive: 12.7%.
The figure for `COc1ccc(-c2cc3ccccc3c(=O)o2)cc1` is inactive: 11.5%.
The figure for `Cc1cc(CC(=O)O)c(C)n1-c1ccc(Cl)cc1` is inactive: 14.5%.
Take `O=C(c1cc(C(F)(F)F)cc(C(F)(F)F)c1)N1CCC2(CC1)CCN(c1ncccn1)CC2`: the “activity change, negative = inhibition” value is inactive: -14.1%.
Consider `CCn1nc(C)cc1C(=O)NCC1CCC2(CCN(Cc3ccccc3F)CC2)O1` (centres undefined), for which the “activity change, negative = inhibition” value is inactive: 8.94%.
In the case of `CC(=O)/C=C\C1[C@]2(C)CCCC(C)(C)C2CC[C@@]1(C)O` (some centres undefined), the “activity change, negative = inhibition” value was inactive: 2.93%.
For `O=C(NCc1cccnc1)[C@@H]1CC=C[C@@H]2CCN(Cc3ccccc3)C(=O)[C@@H]21`, the “activity change, negative = inhibition” value was inactive: 4.82%.
The figure for `CN(CCO)C(=O)c1cn(C2CCCN(Cc3cc4ccccc4s3)C2)nn1` (centres undefined) is inactive: 11%; for `COc1ccc(-c2cc(=O)c3c(OC)c(OC)c(OC)c(OC)c3o2)cc1OC` it is inactive: -20.6%.
Regarding `CC(=O)O[C@]1(C(C)=O)CC[C@H]2[C@@H]3CCC4=CC(=O)CC[C@]4(C)[C@@]3(F)[C@@H](O)C[C@@]21C`, the “activity change, negative = inhibition” value was inactive: 15.5%.
Regarding `Cc1cccc(CNc2cc(-c3ccccc3C)ncn2)c1`, the “activity change, negative = inhibition” value is inactive: 4.7%.
Consider `CC1(C)O[C@@H]2C[C@@H]3[C@H]4C[C@@H](F)C5=CC(=O)C=C[C@]5(C)[C@@]4(F)[C@@H](O)C[C@]3(C)[C@]2(C(=O)CO)O1`, for which the “activity change, negative = inhibition” value is inactive: 25.2%.
As for `O=C(c1csnn1)N1CCC2(CC1)CCN(c1ncccn1)CC2`, the “activity change, negative = inhibition” value was inactive: 19.5%.
The figure for `Cc1nc2cnc(OCc3ccccc3)nc2n(CCC#N)c1=O` is inactive: 17%; for `CC(N)=NCc1cccc(CN)c1` it is “inactive”.
